# Measurements taken from the RNAGym collection of RNA variant scans (doi:10.1073/pnas.2313332121).
# This sample is rich in variants without activity.
# B1: TPR 5TU (parent)
# chain: GGAUCUUCUCGAUCUAACAAAAAAGACAAAUCUGCCACAAAGCUUGAGAGCAUCUUCGGAUGCAGAGGCGGCAGCCUUCGGUGGCGCGAUAGCGCCAACGUUCUCAACUAUGACACGCAAAACGCGUGCUCCGUUGAAUGGAGUUUAUCAUG
# Variants of: B1
# Assay: polymerase ribozyme fitness, log enrichment relative to wild type (log ratio); higher = more active; in vitro selection for triplet polymerase activity
# Summary of the method: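 Mutant libraries for each subunit of a heterodimeric triplet polymerase ribozyme were made by PCR and then transcribed. Each library underwent one round of in vitro selection in triplicate: annealing with a biotinylated primer, the partner subunit and triplets, frozen incubation at −7 °C, gel excision of extended constructs, streptavidin-bead capture and RT-PCR. Input and output libraries were Illumina-sequenced, and only genotypes with ≥10 input reads and ≥1 read per output were kept. Fitness is the logarithm, base 2, of genotype enrichment over wild-type enrichment, computed from inverse-variance-weighted replicate averages.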
row,Variant,polymerase ribozyme fitness (log ratio)
1,A29C G46U G65C A98U G112U A115U G143A,≤ -4.2
2,A29C G48A A73G G86U U109C C118G U134A U148G,≤ -4.2
3,A29C G48C C79A A122G G124U U144A U145G G152U,≤ -4.2
4,A29C G48U C54U C69A C85A A110C U134A G141A,≤ -4.2
5,A29C G50C G83A A98U,≤ -4.2
6,A29C G58U A91U C99U C131G,≤ -4.2
7,A29C G59C G94A G112A A120C G140A,≤ -4.2
8,A29C G59C U78G C85A C95G,≤ -4.2
9,A29C G65C C87U G92A,≤ -4.2
10,A29C G67C A89U G94U,≤ -4.2
11,A29C G67C G68C G71A G81U G83U C95U G126C G133A,≤ -4.2
12,A29C G68A C93A G126A,≤ -4.2
13,A29C G70C U77A G88A A142U,≤ -4.2
14,A29C G71A G143U,≤ -4.2
15,A29C G83A,≤ -4.2
16,A29C G84A,-4.17
17,A29C G84A U101C U127C,≤ -4.2
18,A29C G84C,≤ -4.2
19,A29C G92U G136A,≤ -4.2
20,A29C G140U,≤ -4.2
21,A29C U33A G50C U53G G68U G124A,≤ -4.2

row,Variant,polymerase ribozyme fitness (log ratio)
1,A29C U33G U44G A47G C96U C103G,≤ -4.2
2,A29C U44A C51U C79U C118U A142U U146C,≤ -4.2
3,A29C U44A G58C A89C C99G G128A G141C,≤ -4.2
4,A29C U44A G59U C72U C131G,≤ -4.2
5,A29C U44G C57U G59A C93U,≤ -4.2
6,A29C U53A C57U C76U U82A G83A A107G,≤ -4.2
7,A29C U53A G84C C93U A121G C125G,≤ -4.2
8,A29C U55A C57U U90G A91C U148G,≤ -4.2
9,A29C U55A C75A C85U G141C,≤ -4.2
10,A29C U56A G80U A121G,≤ -4.2
11,A29C U56A G83U,≤ -4.2
12,A29C U61G,≤ -4.2
13,A29G A30U C43U G50A G67U C79G G88U C99A G141A,≤ -4.2
14,A29G A30U C57A U61G G80U U82G G94A G112U G140C,≤ -4.2
15,A29G A37C G58A C95U,≤ -4.2
16,A29G A39C A60G G83A C95U U130G G133C,≤ -4.2
17,A29G A39C C51U C69A G128U G143U U151C,≤ -4.2
18,A29G A39C G48A A52C C75A G86A C123G G143U,≤ -4.2
19,A29G A39G U82A G86U,≤ -4.2
20,A29G A40G A91U C99G G133C,≤ -4.2
21,A29G A40U A47C C87A C93A U111A G124U,≤ -4.2

row,Variant,polymerase ribozyme fitness (log ratio)
1,A29G A41C G88U A91U,≤ -4.2
2,A29G A41C U45G G68A G84A G100A A107U A150G,≤ -4.2
3,A29G A41G A49G C54U G68C U102A,≤ -4.2
4,A29G A47U G58C A73G C85U C93U,≤ -4.2
5,A29G A49C C51U A91G C95G C118A A120C,≤ -4.2
6,A29G A49C G92U A137U A142U,≤ -4.2
7,A29G A49U A60C A91G G140C,≤ -4.2
8,A29G A52C C57U C93U,≤ -4.2
9,A29G A52C C57U C93U A113U C129G C132G,≤ -4.2
10,A29G A60G G81C C87U C105G C129A,≤ -4.2
11,A29G A66U C87G U101A,≤ -4.2
12,A29G A73U A91G C99U A115U A137U,≤ -4.2
13,A29G A89U G133U,≤ -4.2
14,A29G A106G C116A G140U U145G,≤ -4.2
15,A29G C32A U55A U77A U78G A91G C95U G112A U139G G140A,≤ -4.2
16,A29G C32G A47U A49C A110G C114U,≤ -4.2
17,A29G C35G A64U C95G C125U U134C G152U,≤ -4.2
18,A29G C35G U44A U61A G67A G92U,≤ -4.2
19,A29G C43A A66U U101G G143U,≤ -4.2
20,A29G C43A G48C C93G G126C,≤ -4.2
21,A29G C43G C79G U82A C87U A91U C95U C96A A97G,≤ -4.2

row,Variant,polymerase ribozyme fitness (log ratio)
1,A29G C43U C51U A66U C76U G92A,≤ -4.2
2,A29G C51A G59A C87G G133C G141C,≤ -4.2
3,A29G C54A A91U C95U,≤ -4.2
4,A29G C57A A137G,≤ -4.2
5,A29G C57G A73C C85U A107U A110U,≤ -4.2
6,A29G C76G G84C C96U C99U A120U,≤ -4.2
7,A29G C79A,≤ -4.2
8,A29G C95G U127G,≤ -4.2
9,A29G C96A G112C C116G A119C U148A,≤ -4.2
10,A29G G42A G65U C114G,≤ -4.2
11,A29G G48C U53A A60C A91U C95G U104C G126U U139A U151C,≤ -4.2
12,A29G G50A A52C U101G G133C,≤ -4.2
13,A29G G50A C132G U144G,≤ -4.2
14,A29G G50C C51A U53A A97U A98G C125A G128U G133A,≤ -4.2
15,A29G G50C U55A C57A U101A U104G C125U A142C A150C,≤ -4.2
16,A29G G59A C79G G94A G141C A142G,≤ -4.2
17,A29G G67U C87U U145A,≤ -4.2
18,A29G G74A G92U G117A,≤ -4.2
19,A29G G80A C85U U109A U146C,≤ -4.2
20,A29G G81C U134A,≤ -4.2
21,A29G G81U A107C,≤ -4.2
